Measured values published in PubChem BioAssay AID1460 (National Center for Advancing Translational Sciences (NCATS), 2008).
Several values for one entry are separate records, joined by “and”; a condition that tells them apart may be missing. Equal entries are not always repeated. In all, about 270,000 compounds went through this assay and about 5,800 (2.1%) were called active. Inconclusive results, whose numbers are uncertain, are shown with a selection of clear calls. Calls follow the shape of the dose curve; as a rule, active = well fitted inhibition curve with a large enough effect; inconclusive = small, poorly fitted or top-dose-only effect; inactive = flat fitted curve, though single readings scatter. Where the call is inconclusive, the potency comes from a doubtful curve fit.

Molecular target: Microtubule-associated protein tau (Homo sapiens) (UniProt P10636)
Experiment: qHTS for Inhibitors of Tau Fibril Formation, Thioflavin T Binding; also: nearly all actives have a fitted effect of over 55% in size
Conditions: recombinant tau K18 P301L (four-repeat tau fragment), heparin-induced fibrillization, ThT fluorescence; series mostly up to 57.4 µM
In short: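 K18 P301L tau (15 uM + 0.24 uM Alexa 594-tagged), heparin 20 uM, NaOAc pH 7, 6 h 37 C; ThT 30 uM, 1 h RT, ex 450/em 510 nm.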
Potency is read from the fitted curve at half-maximal effect; tags tell the direction and shape of the fitted curve.

Chain of UniProt P10636 (P10636 whole entry, looked up): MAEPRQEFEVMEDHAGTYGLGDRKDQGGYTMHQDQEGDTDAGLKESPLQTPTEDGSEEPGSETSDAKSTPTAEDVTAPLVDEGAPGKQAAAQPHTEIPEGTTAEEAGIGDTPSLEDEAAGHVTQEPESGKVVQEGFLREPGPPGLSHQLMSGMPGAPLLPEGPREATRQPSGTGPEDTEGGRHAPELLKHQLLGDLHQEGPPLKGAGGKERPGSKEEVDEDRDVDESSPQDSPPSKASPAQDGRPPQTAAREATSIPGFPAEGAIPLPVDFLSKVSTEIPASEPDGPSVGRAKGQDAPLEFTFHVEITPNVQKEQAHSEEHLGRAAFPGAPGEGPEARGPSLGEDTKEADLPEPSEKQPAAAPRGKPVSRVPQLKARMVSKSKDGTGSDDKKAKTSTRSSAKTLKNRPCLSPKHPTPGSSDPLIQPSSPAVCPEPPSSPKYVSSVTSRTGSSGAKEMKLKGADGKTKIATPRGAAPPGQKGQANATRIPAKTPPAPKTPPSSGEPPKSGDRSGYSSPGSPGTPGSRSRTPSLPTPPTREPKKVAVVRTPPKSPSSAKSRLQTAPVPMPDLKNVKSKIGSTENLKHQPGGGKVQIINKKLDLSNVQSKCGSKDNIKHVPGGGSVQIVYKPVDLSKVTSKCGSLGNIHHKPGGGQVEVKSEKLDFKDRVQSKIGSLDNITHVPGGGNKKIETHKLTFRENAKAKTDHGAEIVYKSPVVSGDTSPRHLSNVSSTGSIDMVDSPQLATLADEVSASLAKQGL

Row | Structure (SMILES) | Potency
1 | CCOc1ccc(-n2c(SCC(N)=O)nc3sc4c(c3c2=O)CCN(C)C4)cc1 | inconclusive: 31.6 µM [inhibitor, single point]
2 | CCn1c(COc2ccccc2C)nnc1SCC(=O)CC(=O)Nc1ccccc1 | inconclusive: 25.1 µM [inhibitor, single point]
3 | Brc1ccc([C@H]2CN3CCSC3=N2)cc1 | inactive
4 | Nc1ccc(C2=Nc3cccc4cccc(c34)N2)cc1 | inactive
5 | C/C(=N\NC(=O)C(C)Nc1cccc(Cl)c1)c1ccc([N+](=O)[O-])cc1 (centres undefined) | inconclusive: 22.4 µM [inhibitor, single point]
6 | O=C(Nc1nc(-c2cccs2)c(-c2ccccc2)s1)c1ccco1 | inactive
7 | O=C(/C=C/c1ccccc1)NC(=S)NNC(=O)Cc1cccs1 | inconclusive: 11.2 µM [inhibitor, partial curve]
8 | CCSc1ncc(/C=N/Nc2ccc([N+](=O)[O-])cc2)n1C | active: 0.891 µM
9 | CCN1CCN(c2csc3ccc(F)cc3c2=O)CC1 | inconclusive: 15.8 µM [inhibitor, single point]
10 | Cc1ccc2nc(NC(=O)CSc3nncc(=O)n3N)sc2c1 | inconclusive: 0.1 µM [inhibitor, full curve, poor fit]
11 | COC(=O)c1ccccc1NC(=O)CN1CCC(n2nnc3cc(C)ccc32)CC1 | inactive
12 | O=c1c(N2CCN(c3cccc(C(F)(F)F)c3)CC2)csc2ccccc12 | inconclusive: 20 µM [inhibitor, partial curve]
13 | Oc1oc(-c2ccco2)nc1C=Nc1cccc(Cl)c1 | inconclusive: 25.1 µM [inhibitor, partial curve]
14 | COc1ccc(N2CCN(C(=O)c3cccc4nc(C)oc34)CC2)cc1 | inactive
15 | COc1cc2c(cc1NC(=O)Nc1ccc(C)cc1)oc1ccccc12 | inactive
16 | CC(C)(C)c1ccc(CSc2nc3c(c(=O)[nH]2)CCCC3)cc1 | inactive
17 | COc1ccc(-c2cc(-c3ccccc3)c(C#N)c(=S)[nH]2)cc1 | inconclusive: 10 µM [inhibitor, partial curve]
18 | Cc1ccccc1CN1N=C(/C=C/c2ccccc2)CCC1=O | inconclusive: 11.2 µM [inhibitor, partial curve]
19 | CCC1CCC(c2nnc(-c3ccc([N+](=O)[O-])cc3)o2)CC1 (centres undefined) | inconclusive: 10 µM [inhibitor, partial curve]
20 | CCCCOc1ccc(C(=O)Oc2ccc(C)nc2)cc1 | inconclusive: 22.4 µM [inhibitor, partial curve, poor fit]
21 | CSc1nnc(C)c(=O)n1COC(=O)c1ccc(S(=O)(=O)N2CCOCC2)cc1 | inconclusive: 25.1 µM [inhibitor, single point]
22 | Cc1c(Cl)cccc1NC(=O)CSc1ncnc2c1cnn2CCc1ccccc1 | inconclusive: 2 µM [inhibitor, full curve, poor fit]

Row | Structure (SMILES) | Potency
23 | CCOc1ccccc1NC(=O)CCSc1nc2n[nH]c(C)c2c(=N)n1-c1ccccc1Cl | inactive
24 | Cc1ccsc1/C=N\NC(=O)CC(=O)NCc1ccccc1 | inactive
25 | O=C(Nc1ccc(Cl)cc1)c1csc(-c2ccncc2)n1 | inconclusive: 14.1 µM [inhibitor, single point]
26 | CCOc1ccc(Nc2nc(Cc3nnc(SCC(=O)O)o3)cs2)cc1 | inconclusive: 15.8 µM [inhibitor, partial curve]
27 | Cc1csc(NC(=O)c2ccc(C)c(S(=O)(=O)N3CCCCC3)c2)n1 | inactive
28 | Cc1cccc(NC(=O)CSc2nnc3scc(-c4ccccc4)n23)c1 | inconclusive: 0.355 µM [inhibitor, partial curve, poor fit]
29 | O=C(O)c1ccccc1Nc1ccccc1 | inconclusive: 39.8 µM [inhibitor, single point] and inconclusive: 15.8 µM [inhibitor, partial curve, poor fit] and inconclusive: 3.55 µM [inhibitor, partial curve]
30 | O=C(N/N=C/c1ccc(O)c(O)c1)c1ccc(CSc2cccc3cccnc23)cc1 | inconclusive: 1.41 µM [inhibitor, full curve]
31 | O=C(N/N=C/c1cc2c(cc1Br)OCO2)c1c[nH]c2ccccc12 | inconclusive: 1.12 µM [inhibitor, full curve]
32 | COc1ccc(C(=O)NNC(=O)C(=O)Nc2ccc(C)c(Cl)c2)cc1 | inconclusive: 3.16 µM [inhibitor, partial curve]
33 | CC(C)(C)C1CCC(OCC(O)CN2CCN(c3ccccn3)CC2)CC1 (centres undefined) | inconclusive: 14.1 µM [inhibitor, partial curve]
34 | C[C@H](NC(=O)c1nc[nH]c1C(=O)NC(c1ccccc1)c1ccccc1)C(=O)OC(C)(C)C | inconclusive: 22.4 µM [inhibitor, single point]
35 | CCSc1nnc(NC(=O)c2cccc(S(=O)(=O)N(C)c3ccc(C)cc3)c2)s1 | inactive
36 | COc1ccc(N=Nc2ccc(N)nc2N)cc1 | active: 2.51 µM
37 | c1ccc2sc(NN=C3CCCC3)nc2c1 | inconclusive: 12.6 µM [inhibitor, partial curve]
38 | CCCCCC[n+]1c(-c2ccccc2)csc1Nc1ccccc1 | inactive
39 | CC(C)C(C)NC(=O)COc1ccc([N+](=O)[O-])cc1Cl (centres undefined) | inconclusive: 20 µM [inhibitor, partial curve]
40 | Cc1noc(/C=C/N(C)C)c1S(=O)(=O)N1CCN(c2ccccc2)CC1 | inconclusive: 22.4 µM [inhibitor, partial curve, poor fit]
41 | CCOC(=O)CC(NC(=O)CCc1c(C)nc2c(-c3ccccc3)c(C)nn2c1C)c1ccc(C)cc1 (centres undefined) | inactive
42 | Cc1ccc(CNC(=O)C2CCN(C(=O)c3ccc(-n4ccc5ccccc54)s3)CC2)cc1 | inactive
43 | CCOc1ccc(C(=O)Nc2ccc(N3CCN(C)CC3)cc2)cc1Br | inconclusive: 20 µM [inhibitor, partial curve]
44 | Cc1onc(-c2c(Cl)cccc2Cl)c1NC(=O)NNc1ccccc1 | inconclusive: 39.8 µM [inhibitor, single point]
